# Experimental data taken from the supplement of paper PMC3334620.
# Over roughly 33,000 sequences, “E-score (-0.5 to 0.5)” has its median near -0.013; the highest 2% begin near 0.3. The list shows a part of the results.
# Biological target: T1, Msn1 (UniProt P22148)
# T1 sequence: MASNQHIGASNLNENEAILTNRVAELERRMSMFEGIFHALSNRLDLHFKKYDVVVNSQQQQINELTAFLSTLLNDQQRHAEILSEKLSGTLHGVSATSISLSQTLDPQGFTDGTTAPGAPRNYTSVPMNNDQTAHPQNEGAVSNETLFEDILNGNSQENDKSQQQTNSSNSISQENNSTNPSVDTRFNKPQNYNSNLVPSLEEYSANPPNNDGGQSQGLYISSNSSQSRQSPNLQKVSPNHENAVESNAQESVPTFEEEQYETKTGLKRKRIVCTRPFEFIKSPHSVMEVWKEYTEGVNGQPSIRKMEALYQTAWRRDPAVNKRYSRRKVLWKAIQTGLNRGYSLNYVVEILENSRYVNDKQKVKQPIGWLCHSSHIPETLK
# Experiment: PBM E-score (8-mer binding enrichment) (E-score (-0.5 to 0.5)); higher = stronger / more preferred TF binding; most listed sequences are background and not binding sites
# Details: protein concentration: 200 nM; construct: GST-full length
# Experimental: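 Universal 'all 10-mer' protein binding microarrays (Agilent AMADID 015681) probed with GST-tagged S. cerevisiae TFs (full-length or DBD) made by in vitro transcription/translation (PURExpress), about 100-200 nM. Bound TF was detected with fluorescent anti-GST. Each ungapped 8-mer (which stands for itself and its reverse complement) is scored by the PBM enrichment score (E-score), a modified Wilcoxon-Mann-Whitney statistic from -0.5 to +0.5, computed with the Universal PBM Analysis Suite. Scale: above 0.35 generally sequence-specific binding.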
row,Sequence,PBM E-score
1,AGATAAGA,0.159
2,CCCGATGA,0.132
3,TATGGCGA,-0.162
4,ATAGAGAA,0.0764
5,ACAGGCAC,-0.227
6,CAGTCAAA,-0.00344
7,CGCATAGA,0.0575
8,CACTTGAA,0.179
9,AAACGCTT,-0.0136
10,TCTTAACA,0.0991
11,AGTTAACC,-0.0919
12,AGGAGCAT,0.0181
13,CGAGACGC,0.0344
14,AATACATT,0.152
15,AAGCGTGT,-0.0464
16,AGTTGTTA,0.195
17,ATCCGCCG,0.163
18,AGCCAGTG,-0.0204
19,TCGGGTCA,0.213
20,CGCTATAA,-0.0164
21,AGTACTAT,0.11
22,CCAAATGC,-0.0167
23,ATTACTCA,0.0602
24,ACTATGCC,-0.0678
25,AACACTCT,-0.0785

row,Sequence,PBM E-score
1,CCCTGCGG,-0.258
2,AAAAGTGG,0.12
3,ACAATGTC,0.452
4,CCTATGAG,-0.0887
5,AAGACGTC,-0.00027
6,AAAAACGC,0.122
7,AGATGACG,-0.00302
8,AGAGCGAC,0.0642
9,AACTGTCA,0.158
10,ACCTGCAG,-0.129
11,AGTTGCGA,0.00126
12,AGCTAGTC,-0.0933
13,CATCTCGC,-0.0978
14,CCCTCGAG,-0.11
15,ACCCTTGA,-0.194
16,ACAGTGTA,0.0175
17,ACAATGCG,-0.0228
18,GAGTTGCC,-0.0596
19,TAAAGTGA,0.0769
20,ACTCCAAG,-0.125
21,ACGGTAAA,0.0303
22,GTCTAGCA,0.108
23,TTTGCAAA,0.04
24,TCACGTCA,0.031
25,GAAGTGCA,-0.07

row,Sequence,PBM E-score
1,AGTGGGGC,-0.434
2,GCCCTAGC,-0.136
3,CATATTTA,0.232
4,GCGGTCAA,0.157
5,CCGCGGTC,-0.125
6,AAGATAAT,0.0866
7,CGAGCATC,-0.112
8,AGCCGTAC,-0.022
9,AGAACGAA,0.134
10,TCTGGGCA,-0.122
11,ACAAACAG,0.276
12,AGCCGACT,-0.0873
13,CGCGCCGA,0.105
14,CCCGGCCA,-0.18
15,GATAAGAA,0.14
16,TGAAGACA,0.328
17,CAACTAAG,-0.197
18,GCTGCGCC,-0.192
19,CAAGTCTC,-0.0227
20,CAGCTGCA,-0.181
21,TTACGTAA,0.0547
22,AGCCCTTC,-0.317
23,ACGTCCAC,0.2
24,AAAGGTAT,0.0611
25,AGCAGTCG,-0.146

row,Sequence,PBM E-score
1,ACCGAAAT,0.205
2,AGCCACCC,-0.224
3,AGCATAAA,-0.102
4,GAACCAAA,-0.0792
5,CGGATACC,0.0244
6,ACCTAAGC,-0.00657
7,CGTTCTCC,-0.072
8,AGATCAGA,-0.0985
9,AGTAGGAC,0.268
10,ACGTTAAG,0.0909
11,ACTGATAG,-0.0146
12,TGCCACCA,-0.305
13,AGAAGCAC,-0.172
14,ATCTAACG,-0.111
15,GGTGCTCA,-0.183
16,AATCTAGA,0.121
17,CGGACCGC,0.0155
18,TACTATCA,0.206
19,CATATACC,0.00804
20,GTTTCGCA,-0.183
21,GGGGCAGA,-0.0916
22,ACCCGCGT,-0.0692
23,AATCACTC,-0.0494
24,CATTCTAA,0.192
25,ATCAGAGA,-0.0186

row,Sequence,PBM E-score
1,ACGCACCA,-0.0921
2,ACTAAGCA,-0.131
3,CCTGCTGC,-0.123
4,ACTGAGTG,-0.015
5,GAAGTGTC,0.3
6,AGGTTTCA,-0.0133
7,ACGGGAAC,-0.0805
8,ACGTGTTA,0.0969
9,AGCGTTAA,-0.101
10,AGATAGCA,-0.0695
11,AGAAGGAA,-0.227
12,ATTGTTCA,-0.00578
13,GACTTTAC,0.218
14,CTAGGCGA,-0.164
15,CTGTTTGC,0.0999
16,CTACATGA,-0.0118
17,CGATTGAA,-0.0462
18,TAGCGCGA,-0.0744
19,AGGCCACG,-0.0116
20,CGATAGTA,-0.0716
21,AGCCAGAT,-0.117
22,GGAACTAA,0.119
23,CTGACGGC,-0.29
24,AATTACGC,-0.103
25,ATCACAGA,0.0512

row,Sequence,PBM E-score
1,AGGCAAAA,0.163
2,TATACAAA,0.183
3,GTCGACAA,0.101
4,ACAAGTTC,0.264
5,CCAATGAG,-0.213
6,AGCTGTCG,-0.172
7,ACCGAGAG,0.0203
8,AACGGACC,-0.0938
9,GCCGCTTA,-0.0427
10,CCGAAGAG,-0.1
11,GGGCGTGA,-0.0588
12,TAATCCAA,0.0107
13,CCCGAGTA,-0.0377
14,CCCCAAAC,-0.0578
15,CCCTCTCA,-0.308
16,ACTCGAAG,-0.168
17,ACCCCCAT,-0.388
18,CCGAACCC,-0.146
19,CGTGGGAG,-0.261
20,CTTCCTAA,-0.126
21,CCGCACTA,-0.0818
22,CGCTCGCA,0.175
23,AAAACAGA,0.052
24,GCCACGAA,-0.0669
25,ATACTTTC,0.0342

row,Sequence,PBM E-score
1,ACTCTGTC,0.0383
2,CTTGATAA,0.177
3,GTCAGCAC,-0.0865
4,CCGAATTA,-0.0486
5,CACGGTTC,-0.179
6,AAGCACCC,-0.177
7,AGAACAGG,-0.179
8,CATAATCC,-0.147
9,TTGTTAAA,0.0783
10,GCGCAGTA,-0.0517
11,GATCGTCC,0.019
12,ACTACGTC,4e-05
13,CTTGCCCC,-0.281
14,GAATGGGA,-0.158
15,ATATCTTC,0.0841
16,ACATCTGC,-0.127
17,CTGAGGAC,0.249
18,GGTGTCGA,-0.0245
19,ACCTACCT,-0.142
20,ATGACGCC,-0.166
21,AAATATGA,0.154
22,ATCGAACG,-0.081
